Experimental data published in the supplement of paper PMC12067093, “Discovery and optimisation of a covalent ligand for TRIM25 and its application to targeted protein ubiquitination” (Chemical Science, 2025).
About 21,000 targets were measured; listed, in parts, are those with the largest changes and a random draw of the rest.

Compound: CC1Cc2ccccc2N1C(=O)C1CCCN(C1)C(=O)CCl (mixture of isomers) [TRIM25 ligand 11 (diastereomer mixture)]
Experiment: probe-labelled cysteine peptide fold change vs DMSO (competition) (log2 fold change); higher = less target engagement (more negative = stronger competition)
Conditions: THP-1, incubation time: 4 h
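Further: competitive chemoproteomic profiling in live THP-1 cells with an iodoacetamide desthiobiotin (IA-DTB) probe, comparing probe-labelled peptide intensities in compound-treated cells against DMSO-treated controls.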

UniProt O75122, sequence (O75122 whole entry, looked up): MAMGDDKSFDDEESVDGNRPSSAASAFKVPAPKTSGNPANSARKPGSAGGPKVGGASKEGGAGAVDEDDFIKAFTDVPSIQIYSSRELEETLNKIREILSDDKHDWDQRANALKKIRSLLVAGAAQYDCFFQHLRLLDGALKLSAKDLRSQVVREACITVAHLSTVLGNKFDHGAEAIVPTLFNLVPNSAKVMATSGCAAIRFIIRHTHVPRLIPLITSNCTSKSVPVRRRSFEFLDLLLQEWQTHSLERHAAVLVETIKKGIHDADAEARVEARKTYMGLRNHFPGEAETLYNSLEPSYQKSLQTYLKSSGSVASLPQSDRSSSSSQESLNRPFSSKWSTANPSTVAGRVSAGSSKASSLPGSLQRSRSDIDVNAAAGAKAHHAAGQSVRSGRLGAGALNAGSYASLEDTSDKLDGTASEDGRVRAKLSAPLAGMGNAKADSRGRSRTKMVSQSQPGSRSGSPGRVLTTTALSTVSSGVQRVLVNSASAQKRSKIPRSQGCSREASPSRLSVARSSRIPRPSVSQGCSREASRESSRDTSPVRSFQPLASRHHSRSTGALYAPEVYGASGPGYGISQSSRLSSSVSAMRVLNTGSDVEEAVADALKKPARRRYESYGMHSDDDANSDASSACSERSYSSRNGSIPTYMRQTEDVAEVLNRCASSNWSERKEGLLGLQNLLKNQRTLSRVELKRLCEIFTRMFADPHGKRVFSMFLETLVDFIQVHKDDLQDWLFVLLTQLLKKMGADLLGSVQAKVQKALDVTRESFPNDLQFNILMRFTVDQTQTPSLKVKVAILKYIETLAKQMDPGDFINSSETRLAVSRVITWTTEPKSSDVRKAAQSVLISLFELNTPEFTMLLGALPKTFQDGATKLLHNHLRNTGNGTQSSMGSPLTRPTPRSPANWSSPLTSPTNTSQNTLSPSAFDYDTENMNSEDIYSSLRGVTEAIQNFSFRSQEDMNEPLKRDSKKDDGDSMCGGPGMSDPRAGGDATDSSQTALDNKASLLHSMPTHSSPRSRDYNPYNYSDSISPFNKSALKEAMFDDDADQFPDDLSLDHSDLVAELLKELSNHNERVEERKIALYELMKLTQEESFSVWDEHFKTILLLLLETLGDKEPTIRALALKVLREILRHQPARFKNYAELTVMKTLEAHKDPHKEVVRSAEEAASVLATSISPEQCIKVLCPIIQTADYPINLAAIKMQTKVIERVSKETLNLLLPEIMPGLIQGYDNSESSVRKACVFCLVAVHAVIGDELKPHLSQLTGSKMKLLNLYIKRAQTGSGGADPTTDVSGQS
UniProt Q9BT09, sequence (Q9BT09 whole entry, looked up): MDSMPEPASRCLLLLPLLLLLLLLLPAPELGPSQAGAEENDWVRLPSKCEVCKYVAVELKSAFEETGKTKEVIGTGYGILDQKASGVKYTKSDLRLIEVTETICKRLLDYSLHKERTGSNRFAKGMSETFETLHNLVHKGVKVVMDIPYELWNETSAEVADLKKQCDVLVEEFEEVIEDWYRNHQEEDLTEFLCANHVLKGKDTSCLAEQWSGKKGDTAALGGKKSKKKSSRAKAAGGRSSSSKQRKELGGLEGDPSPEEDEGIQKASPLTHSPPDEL
UniProt P21127, sequence (P21127 whole entry, looked up): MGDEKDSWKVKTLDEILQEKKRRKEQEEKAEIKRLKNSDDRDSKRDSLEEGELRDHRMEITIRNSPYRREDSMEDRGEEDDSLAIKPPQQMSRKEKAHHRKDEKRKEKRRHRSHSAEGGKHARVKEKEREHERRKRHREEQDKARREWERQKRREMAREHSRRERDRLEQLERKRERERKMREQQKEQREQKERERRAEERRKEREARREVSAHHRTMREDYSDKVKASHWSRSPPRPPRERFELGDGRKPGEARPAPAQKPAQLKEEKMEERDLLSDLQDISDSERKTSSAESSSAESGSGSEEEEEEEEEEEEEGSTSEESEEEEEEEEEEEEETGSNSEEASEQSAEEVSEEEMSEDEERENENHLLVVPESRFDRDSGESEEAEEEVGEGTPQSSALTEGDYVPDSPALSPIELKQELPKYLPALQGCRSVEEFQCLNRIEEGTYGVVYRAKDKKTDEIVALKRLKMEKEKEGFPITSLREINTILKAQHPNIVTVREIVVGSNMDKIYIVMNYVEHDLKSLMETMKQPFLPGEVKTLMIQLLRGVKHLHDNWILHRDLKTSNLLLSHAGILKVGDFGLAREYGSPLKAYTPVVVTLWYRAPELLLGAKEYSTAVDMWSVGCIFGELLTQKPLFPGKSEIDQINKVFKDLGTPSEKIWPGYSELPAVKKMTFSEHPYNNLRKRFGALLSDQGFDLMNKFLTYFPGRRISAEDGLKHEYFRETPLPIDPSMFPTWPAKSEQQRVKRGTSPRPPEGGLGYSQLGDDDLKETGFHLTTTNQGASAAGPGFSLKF
UniProt P50991, sequence (P50991 whole entry, looked up): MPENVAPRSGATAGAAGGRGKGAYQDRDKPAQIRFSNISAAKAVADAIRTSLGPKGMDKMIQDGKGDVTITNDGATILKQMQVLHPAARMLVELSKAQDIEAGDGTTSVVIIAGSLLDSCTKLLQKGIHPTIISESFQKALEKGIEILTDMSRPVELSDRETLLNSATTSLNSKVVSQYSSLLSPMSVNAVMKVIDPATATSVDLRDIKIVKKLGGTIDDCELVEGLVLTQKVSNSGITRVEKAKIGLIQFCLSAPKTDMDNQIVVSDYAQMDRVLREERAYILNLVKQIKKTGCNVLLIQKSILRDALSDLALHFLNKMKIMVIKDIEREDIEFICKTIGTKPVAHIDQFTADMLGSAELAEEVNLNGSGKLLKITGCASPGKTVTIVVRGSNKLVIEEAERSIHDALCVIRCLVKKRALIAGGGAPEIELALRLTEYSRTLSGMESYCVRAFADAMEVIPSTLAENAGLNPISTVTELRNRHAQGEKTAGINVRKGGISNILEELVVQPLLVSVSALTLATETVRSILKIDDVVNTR
UniProt Q9Y6W3, sequence (Q9Y6W3 whole entry, looked up): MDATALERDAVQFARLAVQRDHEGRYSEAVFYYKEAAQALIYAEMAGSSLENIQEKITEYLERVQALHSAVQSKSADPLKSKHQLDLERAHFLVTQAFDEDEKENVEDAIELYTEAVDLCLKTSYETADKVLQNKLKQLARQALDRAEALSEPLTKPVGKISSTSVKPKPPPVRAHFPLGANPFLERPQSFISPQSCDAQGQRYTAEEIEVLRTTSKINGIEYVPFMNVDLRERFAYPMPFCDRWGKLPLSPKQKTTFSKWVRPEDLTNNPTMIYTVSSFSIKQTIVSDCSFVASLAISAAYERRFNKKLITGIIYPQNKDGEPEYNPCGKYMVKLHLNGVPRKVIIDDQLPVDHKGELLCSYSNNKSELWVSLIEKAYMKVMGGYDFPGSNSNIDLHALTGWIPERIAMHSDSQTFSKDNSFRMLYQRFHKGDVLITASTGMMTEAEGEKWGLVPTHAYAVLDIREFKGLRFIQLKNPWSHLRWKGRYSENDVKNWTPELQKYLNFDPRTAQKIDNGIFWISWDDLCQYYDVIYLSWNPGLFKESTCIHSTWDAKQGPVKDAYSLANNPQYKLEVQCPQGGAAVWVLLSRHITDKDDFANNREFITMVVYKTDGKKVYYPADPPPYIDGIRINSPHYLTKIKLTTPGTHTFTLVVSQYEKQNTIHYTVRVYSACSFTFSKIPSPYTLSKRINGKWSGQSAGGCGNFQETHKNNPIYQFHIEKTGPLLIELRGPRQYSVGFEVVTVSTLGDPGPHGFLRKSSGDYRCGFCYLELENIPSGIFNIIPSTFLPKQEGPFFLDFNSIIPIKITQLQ
UniProt Q8TDN6, sequence (Q8TDN6 whole entry, looked up): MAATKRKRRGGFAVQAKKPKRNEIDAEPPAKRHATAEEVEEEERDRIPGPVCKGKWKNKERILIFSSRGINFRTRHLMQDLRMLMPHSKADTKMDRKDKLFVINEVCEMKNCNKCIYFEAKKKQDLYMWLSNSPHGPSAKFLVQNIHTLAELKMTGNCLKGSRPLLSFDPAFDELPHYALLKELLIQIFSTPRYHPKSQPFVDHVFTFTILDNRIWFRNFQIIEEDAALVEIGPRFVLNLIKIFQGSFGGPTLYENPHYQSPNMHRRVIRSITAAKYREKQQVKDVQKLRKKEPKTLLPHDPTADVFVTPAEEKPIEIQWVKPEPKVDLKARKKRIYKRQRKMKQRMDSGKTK
UniProt Q9Y6K0, sequence (Q9Y6K0 whole entry, looked up): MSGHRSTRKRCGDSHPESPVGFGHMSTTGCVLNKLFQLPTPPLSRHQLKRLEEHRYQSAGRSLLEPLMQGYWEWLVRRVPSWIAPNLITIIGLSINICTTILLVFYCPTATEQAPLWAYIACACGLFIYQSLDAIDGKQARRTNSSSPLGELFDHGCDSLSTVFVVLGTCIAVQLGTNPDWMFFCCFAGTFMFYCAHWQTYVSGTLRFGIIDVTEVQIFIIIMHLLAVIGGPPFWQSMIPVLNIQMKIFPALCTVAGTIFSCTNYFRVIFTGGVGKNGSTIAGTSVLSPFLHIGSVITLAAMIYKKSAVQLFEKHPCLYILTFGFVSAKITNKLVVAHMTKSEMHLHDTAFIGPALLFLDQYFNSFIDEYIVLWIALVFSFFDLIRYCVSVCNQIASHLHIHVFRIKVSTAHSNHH
UniProt Q9NPF2, sequence (Q9NPF2 whole entry, looked up): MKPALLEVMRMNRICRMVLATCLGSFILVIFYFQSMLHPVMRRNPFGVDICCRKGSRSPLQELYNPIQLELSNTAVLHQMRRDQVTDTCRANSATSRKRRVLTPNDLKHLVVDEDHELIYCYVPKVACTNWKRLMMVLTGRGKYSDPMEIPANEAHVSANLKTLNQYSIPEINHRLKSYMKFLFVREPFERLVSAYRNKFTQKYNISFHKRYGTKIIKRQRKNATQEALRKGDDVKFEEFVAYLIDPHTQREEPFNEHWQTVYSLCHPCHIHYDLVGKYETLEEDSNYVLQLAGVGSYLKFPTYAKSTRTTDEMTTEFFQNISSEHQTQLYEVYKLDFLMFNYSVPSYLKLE
UniProt P62633, sequence (P62633 whole entry, looked up): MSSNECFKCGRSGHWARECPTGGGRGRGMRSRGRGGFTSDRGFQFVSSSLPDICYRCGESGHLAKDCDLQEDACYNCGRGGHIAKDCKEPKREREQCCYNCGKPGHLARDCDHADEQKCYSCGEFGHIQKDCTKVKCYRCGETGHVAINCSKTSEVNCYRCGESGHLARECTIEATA

Row | Target | probe-labelled cysteine peptide fold change (10 µM) | probe-labelled cysteine peptide fold change (50 µM)
1 | CDCA2_Q69YH5_714_AGTDSPVSCASVTEER (UniProt Q69YH5) | -0.0611 | -0.104
2 | CNBP_P62633_97+101_EQCCYNCGKPGHLAR (UniProt P62633) | -0.137 | -0.214
3 | CHST11_Q9NPF2_89_DQVTDTCR (UniProt Q9NPF2) | 0.0268 | -0.16
4 | CDK11B_P21127_440_SVEEFQCLNR (UniProt P21127) | -0.0678 | 0.0296
5 | CDC27_P30260_115_SHDDIVTEFGDSACFTLSLLGHVYCK (UniProt P30260) | 0.122 | -0.0262
6 | CLASP2_O75122_528_IPRPSVSQGCSR (UniProt O75122) | -0.0975 | -0.0717
7 | CCDC97_Q96F63_17_GCIEPGPGHWGELSR (UniProt Q96F63) | -0.118 | -0.218
8 | BRIX1_Q8TDN6_158_MTGNCLK (UniProt Q8TDN6) | 0.00674 | -0.00131
9 | CLPB_Q9H078_446_QCPNAVVLFDEVDK (UniProt Q9H078) | -0.233 | 0.0848
10 | CD3EAP_O15446_14_FSCPPNFTAKPPASESPR (UniProt O15446) | -0.00721 | -0.399
11 | COPA_P53621_85_CLFTLLGHLDYIR (UniProt P53621) | 0.107 | 0.167
12 | CHD4_Q14839_1468_HLCEPGADGAETFADGVPR (UniProt Q14839) | 0.106 | -0.0347
13 | CAPN7_Q9Y6W3_548_ESTCIHSTWDAK (UniProt Q9Y6W3) | 0.41 | 0.238
14 | CDK8_P49336_25_ERVEDLFEYEGCK (UniProt P49336) | -0.0998 | -0.129
15 | CCT4_P50991_450_TLSGMESYCVR (UniProt P50991) | 0.000397 | 0.0567
16 | CEPT1_Q9Y6K0_30_CGDSHPESPVGFGHMSTTGCVLNK (UniProt Q9Y6K0) | 0.062 | -0.722
17 | CNPY3_Q9BT09_104_LIEVTETICKR (UniProt Q9BT09) | -0.0278 | 0.271
18 | COMP_P49747_371_GDACDDDIDGDR (UniProt P49747) | 0.938 | 0.0976
19 | CNOT6L_Q96LI5_283_KHVDGCAIFFK (UniProt Q96LI5) | -0.024 | -0.00294
20 | C8G_P07360_188_YGFCEAADQFHVLDEVR (UniProt P07360) | 0.774 | 0.523
21 | BRCA1_P38398_712_CSNTSELK (UniProt P38398) | 0.0312 | -0.088
22 | CELF2_O95319_85+86_GCCFVTFYTR (UniProt O95319) | -0.141 | -0.194
23 | CLCC1_Q96S66_60_DVSPDLSCADEISECYHK (UniProt Q96S66) | -0.0136 | 0.0255
